# Source: the supplement of paper PMC6206098
# ± gives the uncertainty stated by the source. Shown are siRNA guide strands that differ only in the seed, positions 2 to 7.
# Experiments:
# [1] = system: 3LL; assay: cell viability relative to siNT1 control; higher = less toxic; conditions: concentration: 10 nM; 96 h; Mus musculus;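 note: Luminescence-based viability of cells reverse transfected in 384-well plates with lipid-complexed siRNAs built on a non-toxic 19mer backbone whose passenger strand carries 2′-O-methyl groups at positions 1 and 2, triplicates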
# [2] = system: H460; assay: cell viability relative to lipid-only control; HeyA8 human ovarian and H460 human lung cancer; M565 mouse liver and 3LL mouse lung cancer; siNT1 is a non-toxic control siRNA; higher = less toxic; conditions: concentration: 10 nM; 96 h; Homo sapiens
# [3] = system: HeyA8; assay: as above; conditions: concentration: 10 nM; 96 h; Homo sapiens
# [4] = system: M565; assay: as above; conditions: concentration: 10 nM; 96 h; Mus musculus
# 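Throughout, for cell viability relative to lipid-only control: reverse lipid transfection in 384-well plates, in triplicate, of duplexes on a non-toxic 19mer backbone with passenger strand 2′-O-methylated at positions 1 and 2, luminescence viability read-out.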
Sequence,cell viability [1] [%],cell viability [2] [%],cell viability [3] [%],cell viability [4] [%]
UGUCGGUACAUGUAAACCAAA,23.8 ± 3.9,46.4 ± 4.8,64.9 ± 7.3,35.3 ± 6.6
UGUCGUAACAUGUAAACCAAA,88.6 ± 14,70.1 ± 21,79.5 ± 5,44.9 ± 7.8
UGUCGUCACAUGUAAACCAAA,27 ± 8.8,53 ± 14,29.1 ± 5,17.2 ± 8
UGUCGUGACAUGUAAACCAAA,88.6 ± 20,69.2 ± 16,66.5 ± 16,60.9 ± 2.5
UGUCGUUACAUGUAAACCAAA,53.6 ± 10,60.6 ± 9,53.6 ± 6.6,29.8 ± 4
UGUCUAAACAUGUAAACCAAA,93 ± 26,60.1 ± 5.1,80 ± 7.6,69.8 ± 5.6
UGUCUACACAUGUAAACCAAA,89 ± 12,40 ± 9,50.3 ± 1.4,46.1 ± 7.4
UGUCUAGACAUGUAAACCAAA,34 ± 6.5,50.8 ± 6.1,58.3 ± 2.2,56 ± 5.5
UGUCUAUACAUGUAAACCAAA,45.3 ± 9.3,50.1 ± 7.3,39.4 ± 1.8,37 ± 7.2
UGUCUCAACAUGUAAACCAAA,49.7 ± 6.4,51.3 ± 5.3,44.1 ± 6.5,36 ± 7.3
UGUCUCCACAUGUAAACCAAA,5.77 ± 2.9,22.9 ± 3.5,3.79 ± 0.33,9.4 ± 1.4
UGUCUCGACAUGUAAACCAAA,18 ± 4.9,32.9 ± 4,28 ± 1.9,10.3 ± 3.4
UGUCUCUACAUGUAAACCAAA,9.28 ± 1.8,34.2 ± 8.4,5.97 ± 0.47,10.5 ± 2.2
UGUCUGAACAUGUAAACCAAA,38.3 ± 4.2,36 ± 1.9,27.6 ± 3.3,18 ± 4.9
UGUCUGCACAUGUAAACCAAA,6.42 ± 3.9,15.8 ± 1.3,5.88 ± 0.93,8.43 ± 3.1
UGUCUGGACAUGUAAACCAAA,11.4 ± 1.3,21.8 ± 2.2,7.07 ± 1.7,5.38 ± 1.5
UGUCUGUACAUGUAAACCAAA,30.1 ± 6.3,37.7 ± 5,9.01 ± 2.4,24.2 ± 1.9
UGUCUUAACAUGUAAACCAAA,92.2 ± 16,61.7 ± 11,77 ± 8.9,67.4 ± 14
UGUCUUCACAUGUAAACCAAA,35.3 ± 1.7,46.3 ± 4,2.22 ± 0.17,40 ± 8.6
UGUCUUGACAUGUAAACCAAA,75.1 ± 15,48.8 ± 5.9,48.8 ± 6.9,35 ± 5.6

Sequence,cell viability [1] [%],cell viability [2] [%],cell viability [3] [%],cell viability [4] [%]
UGUCUUUACAUGUAAACCAAA,45.8 ± 7.3,53.7 ± 3.9,43.2 ± 6.2,27.5 ± 4.3
UGUGAAAACAUGUAAACCAAA,87.6 ± 4.5,63.1 ± 8.6,83.2 ± 4.7,71.6 ± 4.3
UGUGAACACAUGUAAACCAAA,69 ± 6.3,46.5 ± 3.4,46.5 ± 6.9,22.3 ± 1.9
UGUGAAGACAUGUAAACCAAA,90.1 ± 3.7,58.6 ± 4.8,69.4 ± 0.8,62.8 ± 6.1
UGUGAAUACAUGUAAACCAAA,76.6 ± 4.6,47.3 ± 7.5,52.2 ± 3.8,29.8 ± 2.1
UGUGACAACAUGUAAACCAAA,57.1 ± 6.3,52.8 ± 3,72.1 ± 9.3,66.6 ± 14
UGUGACCACAUGUAAACCAAA,27.4 ± 4.5,24 ± 6.5,27.6 ± 1.6,19.2 ± 3.4
UGUGACGACAUGUAAACCAAA,79.3 ± 8.2,45.4 ± 1.5,73.7 ± 5,48.7 ± 8.7
UGUGACUACAUGUAAACCAAA,42.5 ± 11,26.2 ± 4.2,21.7 ± 1.2,55.7 ± 8.3
UGUGAGAACAUGUAAACCAAA,76.6 ± 9.5,45.3 ± 3.2,51.9 ± 2.2,10.7 ± 2.3
UGUGAGCACAUGUAAACCAAA,33 ± 10,21.7 ± 1.5,30.1 ± 3.5,6.01 ± 3.6
UGUGAGGACAUGUAAACCAAA,30.4 ± 18,23.9 ± 1.6,25.2 ± 2.8,34.1 ± 8.1
UGUGAGUACAUGUAAACCAAA,7.44 ± 1.9,23.7 ± 2.5,14.6 ± 2.3,3.62 ± 0.4
UGUGAUAACAUGUAAACCAAA,91.44 ± 0.91,54.5 ± 7,63.1 ± 9.6,65 ± 8
UGUGAUCACAUGUAAACCAAA,84.9 ± 3.6,53.6 ± 2.3,31.4 ± 5,83.1 ± 3.1
UGUGAUGACAUGUAAACCAAA,90 ± 5.2,47.6 ± 3.7,25.8 ± 8.4,34.3 ± 9.7
UGUGAUUACAUGUAAACCAAA,69 ± 7,43.8 ± 11,53.7 ± 2.5,19.2 ± 3.1
UGUGCAAACAUGUAAACCAAA,86.7 ± 4.7,75.1 ± 1.9,91.8 ± 23,66.2 ± 19
UGUGCACACAUGUAAACCAAA,54.8 ± 11,59 ± 8.5,34.4 ± 5.2,37.4 ± 6.8
UGUGCAGACAUGUAAACCAAA,76.2 ± 6.7,67.7 ± 16,75.8 ± 9,64.2 ± 4.4

Sequence,cell viability [1] [%],cell viability [2] [%],cell viability [3] [%],cell viability [4] [%]
UGUGCAUACAUGUAAACCAAA,38.3 ± 13,79.8 ± 9.4,57.2 ± 3.1,39.4 ± 2.1
UGUGCCAACAUGUAAACCAAA,22.9 ± 12,66.4 ± 5.9,19.7 ± 3.3,41 ± 8.7
UGUGCCCACAUGUAAACCAAA,26.5 ± 11,57.1 ± 6.5,69.3 ± 9,18.6 ± 3.6
UGUGCCGACAUGUAAACCAAA,38 ± 11,55.5 ± 3.2,12.8 ± 0.24,54.8 ± 14
UGUGCCUACAUGUAAACCAAA,48.2 ± 8,58 ± 12,32.7 ± 4.5,38.8 ± 5.2
UGUGCGAACAUGUAAACCAAA,77.8 ± 3.2,81.2 ± 18,108 ± 9.2,73.5 ± 8.2
UGUGCGCACAUGUAAACCAAA,61.4 ± 11,50.9 ± 11,61.6 ± 6.7,63.7 ± 12
UGUGCGGACAUGUAAACCAAA,62 ± 12,58.2 ± 8.4,19.3 ± 2.7,20.4 ± 1.8
UGUGCGUACAUGUAAACCAAA,44.6 ± 7.4,68.3 ± 7.9,62.4 ± 6.4,48.2 ± 4.7
UGUGCUAACAUGUAAACCAAA,90 ± 15,70.6 ± 11,88.5 ± 11,120 ± 17
UGUGCUCACAUGUAAACCAAA,39.9 ± 5.9,51.7 ± 6.7,66.9 ± 6,38.8 ± 4
UGUGCUGACAUGUAAACCAAA,74.6 ± 1.3,59.8 ± 12,21 ± 24,89.3 ± 16
UGUGCUUACAUGUAAACCAAA,69.8 ± 5.5,72.2 ± 21,83.9 ± 7.7,60.5 ± 11
UGUGGAAACAUGUAAACCAAA,84.6 ± 3.5,86.5 ± 7.3,51.8 ± 3.3,42.9 ± 8
UGUGGACACAUGUAAACCAAA,58 ± 4.4,36.3 ± 3.8,34.5 ± 2.5,7.49 ± 2.5
UGUGGAGACAUGUAAACCAAA,72.5 ± 4,36.5 ± 6.4,11.1 ± 0.46,22.2 ± 12
UGUGGAUACAUGUAAACCAAA,70 ± 6.7,46.4 ± 12,12.1 ± 1.5,16.2 ± 3.9
UGUGGCAACAUGUAAACCAAA,26.6 ± 13,53.6 ± 7.4,20 ± 3.1,34.1 ± 10
UGUGGCCACAUGUAAACCAAA,16.9 ± 12,27.8 ± 2.4,36 ± 5.5,8.78 ± 3.3
UGUGGCGACAUGUAAACCAAA,42.2 ± 6.3,31 ± 3.3,55.7 ± 8.1,70.7 ± 21
